Paper PMC8342319, “Predicting blood-to-plasma concentration ratios of drugs from chemical structures and volumes of distribution in humans” (Molecular Diversity, 2021)
Read-outs that look alike come from different tables or passages of the source.

Tests used:
[1] = human, cited from earlier work
plasma protein [2] = experiment: Measurement of PPB by equilibrium dialysis in pooled human plasma (free fraction); conditions: for fp_Human: human plasma free fraction, footnote b: fu is our experimental data; for fraction unbound at 5 h, 5 µM: human, pooled human plasma
[3] = human
plasma protein [4] = conditions: cited from earlier work; for fp_Human (free fraction in plasma): human
[5] = intravenous, median if multiple values were reported, ref numbers in Table S1
[6] = collected value, median if multiple values were reported, ref: Table S1
[7] = intravenous, median if multiple values reported, Reference of Table S1

Structure (SMILES) | in vivo Vd_(L/kg)_Human [1, 5] | fp_Human (plasma protein [2]) | fraction unbound at 5 h, 5 µM (plasma protein [2]) | further results
CCN(CC)CC(=O)Nc1c(C)cccc1C [Lidocaine] | 1.450 L/kg | 0.251 | 0.251 | in vivo MRT_(hr)_Human [3]: 1.510 h
CN1C(=O)CN=C(c2ccccc2)c2cc(Cl)ccc21 [Diazepam] | – | – | – | in vivo Vd_(L/kg)_Human ([1]; in vivo, iv): 1.000 L/kg; fp_Human (plasma protein [4]): 0.023; fp_Human (free fraction in plasma) (plasma protein [4]; plasma): 0.023
CC(C)NCC(O)COc1ccc(CC(N)=O)cc1 (centres unmarked) [Atenolol] | 0.950 L/kg | 1.000 | 1 | –
CN(C)CCOC(c1ccccc1)c1ccccc1 [Diphenhydramine] | 6.500 L/kg | – | – | fp_Human (free fraction in plasma) (plasma protein [4]; [6]): 0.190
Cc1cc(NS(=O)(=O)c2ccc(N)cc2)no1 [Sulfamethoxazole] | – | – | – | in vivo Vd_(L/kg)_Human [1, 7]: 0.300 L/kg; fp_Human (plasma protein [4]): 0.230
COc1ccc2cc([C@H](C)C(=O)O)ccc2c1 [Naproxen] | 0.095 L/kg | 0.001 | 0.001 | in vivo MRT_(hr)_Human [3]: 22.619 h
NS(=O)(=O)c1cc(C(=O)O)c(NCc2ccco2)cc1Cl [Furosemide] | 0.120 L/kg | 0.363 | 0.363 | –
CN1CC[C@]23c4c5ccc(O)c4O[C@H]2[C@@H](O)C=C[C@H]3[C@H]1C5 [Morphine] | – | – | – | in vivo Vd_(L/kg)_Human ([1]; in vivo, iv): 2.800 L/kg; fp_Human (plasma protein [4]): 0.650; fp_Human (free fraction in plasma) (plasma protein [4]; plasma): 0.650
CCCNCC(O)COc1ccccc1C(=O)CCc1ccccc1 (centres unmarked) [Propafenone] | – | – | – | in vivo Vd_(L/kg)_Human [1, 7]: 2.200 L/kg; fp_Human (plasma protein [4]; free fraction in human plasma, median if multiple values reported, Reference of Table S1): 0.046
CCCCc1oc2ccccc2c1C(=O)c1cc(I)c(OCCN(CC)CC)c(I)c1 [Amiodarone] | 63.000 L/kg | – | – | fp_Human (free fraction in plasma) (plasma protein [4]; [6]): 0.025
CC1=C(C(=O)O)N2C(=O)[C@@H](NC(=O)[C@H](N)c3ccccc3)[C@H]2SC1 [Cephalexin] | 0.210 L/kg | – | – | –
